# Assay results: the BET-seq Pho4 binding data (Le et al. 2018)
# This is one part of the list. The energies were worked out here from pooled read counts, against the library average; single values are noisy.
# Biological target: T1, Pho4 (S. cerevisiae) (UniProt P07270)
# T1 sequence: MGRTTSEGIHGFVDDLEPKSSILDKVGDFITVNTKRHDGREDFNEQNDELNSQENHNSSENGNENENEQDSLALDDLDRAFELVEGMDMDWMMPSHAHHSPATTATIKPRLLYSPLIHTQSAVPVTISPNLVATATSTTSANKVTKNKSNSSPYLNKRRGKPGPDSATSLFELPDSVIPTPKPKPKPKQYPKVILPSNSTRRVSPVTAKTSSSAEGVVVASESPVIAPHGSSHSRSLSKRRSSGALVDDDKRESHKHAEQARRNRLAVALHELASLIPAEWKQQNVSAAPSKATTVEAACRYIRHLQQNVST
# Assay: relative binding free energy (BET-seq); higher = weaker binding
# Conditions: reference: library average
row,Sequence,relative binding free energy [kcal/mol]
1,TTAATCACGTGAGTTC,0.23
2,TGACGCACGTGGGTTA,-0.18
3,TTTTTCACGTGAGTAC,0.34
4,GAGGTCACGTGGGAAC,0.23
5,GGTAACACGTGTGAGT,0.1
6,TTGAACACGTGTTTAG,-0.02
7,AGTAGCACGTGAAACG,0.36
8,AGGGGCACGTGTGGCA,-0.02
9,TGGCGCACGTGGGAGC,-0.24
10,GCGATCACGTGTGTTT,0.26
11,GTTTTCACGTGAAGAG,0.33
12,GAAGTCACGTGGGTTA,0.03
13,CAGGGCACGTGGTTAT,-0.15
14,GATTGCACGTGGTAAG,0.06
15,TTTCGCACGTGTGGGG,0.04
16,AAGGGCACGTGAGGAG,0.09
17,ATAAACACGTGTGTAG,-0.02
18,AGAGACACGTGGGATA,-0.12
19,CAGCGCACGTGGGTGA,-0.09
20,TTGAGCACGTGGCATG,-0.14
21,TTAGACACGTGCTTTG,-0.08
22,GGGTTCACGTGCTATT,0.28
23,TCTGTCACGTGGGTGT,-0.09
24,TGCTGCACGTGGTGTC,-0.05
25,AGAGACACGTGCGTGG,-0.02
26,AGGCGCACGTGTTGGA,-0.06

row,Sequence,relative binding free energy [kcal/mol]
1,ATGAGCACGTGGGGCT,-0.33
2,AATTGCACGTGTGTGA,0.06
3,TAATTCACGTGTATTC,0.36
4,AGGAGCACGTGGGTTC,-0.15
5,AGGTGCACGTGGGCTG,-0.2
6,GTTGGCACGTGTGAGC,0.08
7,GGGGTCACGTGGATGA,0.18
8,CGGAGCACGTGGTGCT,-0.06
9,TGAAGCACGTGTTTTT,0.03
10,AGGAGCACGTGTGCTT,0.02
11,AGAGGCACGTGTTGTG,-0.13
12,TTTCCCACGTGAGGTT,0.26
13,GATGTCACGTGTGGTT,0.17
14,ATCATCACGTGGTTTG,0.09
15,ATGGCCACGTGCGGAG,-0.1
16,TGATACACGTGGTAAT,0.02
17,CTGGACACGTGGGAAG,-0.03
18,GTGGGCACGTGACGGT,0.14
19,GTGTCCACGTGTGTGC,0.07
20,GCAAGCACGTGAGGGT,0.21
21,GGCCTCACGTGGGGTT,0.16
22,TTATCCACGTGTCGGT,0.1
23,CTCGTCACGTGGTGTA,-0.05
24,TGCAGCACGTGATAGT,0.12
25,CGAGTCACGTGAGGTA,0.17
26,AGTGTCACGTGTGAGG,0.1

row,Sequence,relative binding free energy [kcal/mol]
1,TGGGACACGTGGGAGG,0
2,AAAGACACGTGTTGTT,0.07
3,ACTTACACGTGTATGG,0.15
4,TCGTTCACGTGCGGTT,0.24
5,GTGTTCACGTGTTTTG,0.47
6,GGCGTCACGTGAATTG,0.27
7,TATCACACGTGAGGGT,0.22
8,TAGTGCACGTGCTCGG,-0.13
9,AGGTGCACGTGCGTTC,0.01
10,TTTTTCACGTGATGCT,0.28
11,TAGGACACGTGGGCAG,-0.13
12,TGCGGCACGTGTAGGG,-0.14
13,CGTGACACGTGGTGAA,0.08
14,GTTAACACGTGAAAGT,0.47
15,GTGTACACGTGTAGTG,0.13
16,GGGGACACGTGGAGTG,0.13
17,GTTTTCACGTGACGTT,0.42
18,TTGTCCACGTGAGAGT,0.17
19,AGTCGCACGTGGGAGA,-0.17
20,TGATTCACGTGGACGT,0.26
21,ATTATCACGTGATATA,0.18
22,TGTTTCACGTGATCGG,0.25
23,AGAGACACGTGGTGTT,0.06
24,TAGTTCACGTGTTTCA,0.25
25,ATGTACACGTGAGGTG,0.38
26,TGGGACACGTGGAATG,0.06

row,Sequence,relative binding free energy [kcal/mol]
1,CGTTTCACGTGGCTTT,0.27
2,TAAATCACGTGTAGGT,0.03
3,GGTCACACGTGTGCGT,0.05
4,TGTAACACGTGTAAGT,0.05
5,AGTAGCACGTGTTATG,-0.01
6,AGGTTCACGTGCGTTA,0.12
7,TGTTGCACGTGATTTC,0.1
8,AGGTGCACGTGGTATA,-0.12
9,GGGGCCACGTGGATTG,0.09
10,TGTTTCACGTGCTGAT,0.25
11,GGTGCCACGTGGGCCG,-0.3
12,ATGTTCACGTGTTTAT,0.19
13,AAAAACACGTGGTTGG,-0.07
14,TATTGCACGTGCGGAA,-0.11
15,CGTTACACGTGATATG,0.17
16,GTAAGCACGTGGTCTG,-0.23
17,GTTTACACGTGGATTT,0.31
18,TGGAACACGTGGTTGA,0
19,ATGACCACGTGGTGGT,-0.17
20,GAGTCCACGTGGGGCG,-0.05
21,TAGTTCACGTGGTTAT,0.28
22,GGATGCACGTGAGCGT,0.2
23,TTCGGCACGTGTAAGG,-0.02
24,TGTGCCACGTGGGGAT,-0.15
25,TCTCGCACGTGGGGGG,-0.19
26,ATTGTCACGTGTAGAC,0.07

row,Sequence,relative binding free energy [kcal/mol]
1,GGGGGCACGTGTAGGC,0.02
2,GTCTTCACGTGGCGGG,0.19
3,ATGTGCACGTGTCGAT,-0.02
4,GCGAACACGTGGTGGT,0.02
5,GCGTACACGTGAGGTT,0.3
6,GTTAGCACGTGAGAAG,0.22
7,GTGCGCACGTGCAGGT,-0.23
8,TGCACCACGTGGGGGA,-0.22
9,GGTACCACGTGGAGTG,-0.05
10,GGAACCACGTGGGTGT,-0.16
11,GGTAGCACGTGGGTTT,-0.01
12,CGGGTCACGTGTAAAG,0.29
13,TAACTCACGTGGGGGG,0.01
14,GGGGACACGTGTGTGT,0.14
15,CGTAGCACGTGTTGGT,-0.11
16,AGGTTCACGTGCTAGG,0.32
17,CATGTCACGTGATGGT,0.06
18,AGTGCCACGTGTTGGG,-0.13
19,CTCTGCACGTGTATGT,0.02
20,TGAGTCACGTGAGAGG,0.37
21,TCATGCACGTGTGTAA,0.04
22,ATTGGCACGTGAAAGT,0.11
23,TGGCACACGTGTAGTG,0.13
24,CTAATCACGTGTAGGT,0.18
25,TGAGGCACGTGGATCG,-0.1
26,TGGGTCACGTGTAAGT,0.13

row,Sequence,relative binding free energy [kcal/mol]
1,AGGGTCACGTGGCCTT,-0.07
2,CTGGACACGTGAAGGG,0.32
3,TCGTGCACGTGGTTGT,-0.1
4,GGCTTCACGTGGTTTA,0.3
5,CGTGTCACGTGGGCGC,-0.05
6,TAACGCACGTGTGGGT,-0.19
7,GAGCTCACGTGTGGGG,0.25
8,GTAGGCACGTGTTATT,-0.02
9,TGGAGCACGTGTATTG,-0.11
10,CTTGGCACGTGTAGTA,-0.17
11,TTTTGCACGTGATATC,0
12,TTTTCCACGTGGGTAT,0.01
13,GATGTCACGTGCATAG,0.26
14,TTGTTCACGTGGTCAA,0.19
15,TTTCGCACGTGTGTAT,0.11
16,TGTAGCACGTGGTACA,-0.12
17,GATAACACGTGTAGGG,0.04
18,GGTTGCACGTGGGAAC,-0.03
19,TTTAGCACGTGTTGCA,-0.02
20,GTTATCACGTGACGGT,0.23
21,GGCTTCACGTGGGGCA,0.06
22,GTTTACACGTGAATAA,0.53
23,ATTGGCACGTGTAAGA,0.19
24,TGGACCACGTGGGAGG,-0.24
25,GGATGCACGTGTAGTA,-0.1
26,TTTTTCACGTGGCGTG,0.13

row,Sequence,relative binding free energy [kcal/mol]
1,TGTAGCACGTGTCATG,-0.15
2,TGGGACACGTGGGTCC,0.01
3,TTAGTCACGTGCGAGT,0.13
4,TGCAGCACGTGGGTTT,-0.08
5,TGGGCCACGTGAGAGT,0.14
6,GTTTCCACGTGGGAAG,0.22
7,ATGTTCACGTGTAAGG,0.24
8,TCTTTCACGTGCAGGG,0.29
9,TCGGTCACGTGTGTAT,0.17
10,GTTGGCACGTGAACAT,0.19
11,AGGCGCACGTGCCGGG,-0.18
12,ATATTCACGTGGCTTT,0.08
13,CATTTCACGTGGGTGA,0.07
14,GGGGTCACGTGAGGTA,0.29
15,GCTTTCACGTGGTATT,0.43
16,GAGGGCACGTGTCATG,-0.09
17,CGAGGCACGTGGGAGG,-0.07
18,TTATTCACGTGATAGG,0.33
19,AGTTGCACGTGCCGGG,-0.13
20,TGATTCACGTGGTGAT,0.26
21,ATTTGCACGTGCTGTT,-0.04
22,AGGAACACGTGGTTCT,0.09
23,ATCGGCACGTGAGTGT,0.27
24,TGATGCACGTGTTGCA,0.01
25,GTCGGCACGTGCTGTG,-0.05
26,GTGGGCACGTGCGGTG,-0.04

row,Sequence,relative binding free energy [kcal/mol]
1,TTGGGCACGTGATAGT,0.03
2,GGAAGCACGTGGTTTG,-0.05
3,GGTCTCACGTGGGTTG,0.04
4,CTGGGCACGTGTCGGG,-0.01
5,TTTGACACGTGCGGGT,0.04
6,TACGGCACGTGTAGTT,0.07
7,GTGATCACGTGATTAT,0.3
8,TTTATCACGTGATCGT,0.21
9,AGCAGCACGTGTGAGG,-0.05
10,GCTAGCACGTGTTGGA,0.07
11,AAAGGCACGTGAAGAA,0.38
12,GGTTTCACGTGTTTGC,0.34
13,TAATGCACGTGTTATA,-0.17
14,GTAGTCACGTGCAGTT,0.02
15,GATTCCACGTGTGGTA,0.24
16,TACTTCACGTGGAGGT,0.17
17,TGCTGCACGTGGGGGG,-0.17
18,TAATTCACGTGGTTAG,0.29
19,TAGGGCACGTGACGCT,0.1
20,GTGGCCACGTGTGAGG,0.02
21,GTGTTCACGTGCTTAG,0.15
22,TACAGCACGTGAGGTT,0.21
23,CGGTTCACGTGAAGTT,0.49
24,TGTATCACGTGGGAGC,0.1
25,GTAGGCACGTGGAAAT,0.03
26,TGAAGCACGTGATGAG,-0.04

row,Sequence,relative binding free energy [kcal/mol]
1,ATGATCACGTGTGTTG,0.08
2,TATGTCACGTGAGGTG,0.24
3,GGGAACACGTGGGCCG,-0.02
4,AGAGTCACGTGTTGCG,0.03
5,AGAGTCACGTGTGTGA,0.15
6,AGCGTCACGTGGTAGT,-0.13
7,TGCAACACGTGATGGT,0.13
8,ACAGACACGTGAGGGG,0.2
9,GCTTGCACGTGTTATG,0.13
10,GTTGTCACGTGAGAGG,0.34
11,ATTTACACGTGGATTG,0.01
12,CGTGGCACGTGGCGTG,-0.22
13,TATTGCACGTGAGAGG,-0.01
14,TCGGACACGTGGTTTG,-0.01
15,GTTATCACGTGGTGAA,0.11
16,GACGACACGTGTAGGT,0.09
17,GCGGTCACGTGAAGGA,0.34
18,GGAAGCACGTGAGGGA,0.06
19,AAGTACACGTGCGGTG,0.1
20,TAATGCACGTGCGGGG,0
21,GTTTTCACGTGATCGG,0.49
22,AGTGTCACGTGGCGGC,-0.01
